Test results reported in PubChem BioAssay AID485344 (National Center for Advancing Translational Sciences (NCATS), 2010).
About 6,900 (2%) of roughly 340,000 compounds were called active. Cut-off read from the data, not from the text of the source: active = inhibition above about 30%; inactive = below that, where a call was filed. Only a part is listed here, and it is no random draw. The source gives no active or inactive call for entries shown without one.

Target: D(2) dopamine receptor (Homo sapiens) (UniProt P14416)
Experiment: HTS Assay for Allosteric Antagonists of the Human D2 Dopamine Receptor: Primary Screen for Antagonists; note: 0% is about no effect
Conditions: HEK293 TREx D2 cells, calcium flux, dopamine EC80; at 10 µM; stronger effect = higher value
In short: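 Dopamine at EC80 is the agonist stimulus; test compounds precede it by 180 s. Calcium flux read kinetically in a force-coupled, inducible HEK293 T-REx D2 cell line.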

Chain of UniProt P14416 (P14416 whole entry, looked up): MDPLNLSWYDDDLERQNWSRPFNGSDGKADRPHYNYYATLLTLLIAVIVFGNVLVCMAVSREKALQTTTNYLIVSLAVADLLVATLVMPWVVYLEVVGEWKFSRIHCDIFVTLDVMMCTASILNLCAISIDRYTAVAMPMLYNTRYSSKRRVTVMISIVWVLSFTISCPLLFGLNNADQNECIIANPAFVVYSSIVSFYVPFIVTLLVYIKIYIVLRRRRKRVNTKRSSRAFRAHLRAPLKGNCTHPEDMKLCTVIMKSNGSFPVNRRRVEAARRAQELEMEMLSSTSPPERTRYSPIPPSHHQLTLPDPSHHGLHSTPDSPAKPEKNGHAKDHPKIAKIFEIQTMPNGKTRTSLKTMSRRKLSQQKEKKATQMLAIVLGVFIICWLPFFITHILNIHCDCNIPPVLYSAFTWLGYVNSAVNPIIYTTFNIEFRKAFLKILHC

Compound | inhibition
Cc1ccc(Cl)cc1NC(=O)CSc1nccn1C | -8.81%
COC(=O)c1c(NC(=O)Cc2coc3cc(C)ccc23)sc2c1CCC2 | 11%
CCOC(=O)c1noc2nc(C)n(CC(=O)NC(C)CC)c(=O)c12 (stereo not given) | -19.8%
O=C(CCc1nnc(CCCCc2ccccc2)o1)NC(c1cccnc1)C(F)(F)F (stereo not given) | active: 32.7%
O=C(NCc1cccs1)c1ccc2c(c1)N(Cc1cccc(F)c1)C(=O)c1ccccc1S2 | 18.5%
CCc1ccc(NC(=O)CN(c2ccc(Cl)cc2)S(=O)(=O)c2ccsc2C(=O)OC)cc1 | -5.78%
CCOc1ccc(NC(=O)c2c(NCc3cccc(OC)c3OC)sc3c2CCC3)cc1 | -24.7%
Nc1c(C(=O)Nc2ccccc2Cl)c2ccccn2c1C(=O)c1ccccc1 | -1.43%
COc1ccc(Cn2c(O)c(C=Nc3ccccc3C(=O)O)c3ccccc3c2=O)cc1 | active: 32.2%
Cc1ccc(C)c(CN2C(=O)C(O)(c3c(C)[nH]c4ccccc34)c3ccccc32)c1 (stereo not given) | 0.734%
O=C(C1CCCN(S(=O)(=O)c2cccc3nsnc23)C1)N1CCN(c2ccccc2)CC1 (stereo not given) | 7.94%
O=C1NCN(c2ccccc2)C12CCN(CCCC(c1ccc(F)cc1)c1ccc(F)cc1)CC2 | active: 68.7%
CCOC(=O)N1CCN(C(=O)CN(c2ccccc2F)S(=O)(=O)c2ccc(C)cc2)CC1 | 2.87%
Cc1ccc(Cl)c(OCCN2CCc3ccccc3C2)c1 | active: 65.9%
Cc1ccc(Cn2cc(S(=O)(=O)c3cccc(Cl)c3)c(=O)c3cc(F)c(N4CCCCC4)cc32)cc1 | 8.5%
Cc1cc(N2CCC(C)CC2)nc2ccc(NC(=O)Cc3c(F)cccc3Cl)cc12 | 11.5%
COc1cc(OC)cc(N2C(=O)N(Cc3ccc(C(C)(C)C)cc3)c3ccccc3S2(=O)=O)c1 | -9.26%
COc1ccc(S(=O)(=O)N2CCC(C(=O)Nc3ccccc3)CC2)cc1OC | 15.3%
COC(=O)c1scc(-c2ccc(C)cc2)c1S(=O)(=O)N1CCN(c2ccccc2)CC1 | 25%
COc1cccc(NC(=O)CC(=O)Nc2ccc3nc4n(c(=O)c3c2)CCCCC4)c1 | -17.7%
O=C(CCSCc1cccc(Cl)c1)N1CCN(c2ccc(Cl)cc2)CC1 | -1.24%
Cc1ccccc1C(=O)N1CC(=O)Nc2ccc(Cl)cc2C1c1ccccc1 (stereo not given) | -2.73%
CC(C)(C)OC(=O)N1CCC[C@H]1C(=O)Nc1ccc(C#N)cc1 | active: 62.7%
O=C(c1cccc(Cl)c1)N1c2nc(-c3ccco3)nn2C2(CCCCC2)[C@@H]2CCCC[C@@H]21 | 18%
COc1ccc(CCNC(=O)CCCCn2c(=O)c3ccccc3n(CC(=O)Nc3c(C)cccc3C)c2=O)cc1OC | -2.82%
